Assay results as given in PubChem BioAssay AID1508642 (National Center for Advancing Translational Sciences (NCATS), 2021).
Out of some 43,000 compounds screened, about 200 (0.47%) were called active. Another 12% or so got no clear call; they are omitted. Calls follow the shape of the dose curve; as a rule, active = well fitted cell-killing curve with a large enough effect; inconclusive = small, poorly fitted or top-dose-only effect, or effect the other way; inactive = flat fitted curve, though single readings scatter. This is one part of the list.

Experiment: Cell viability qHTS assay in S16 Pmp22-F2sN cells; also: nearly all actives have a fitted effect of over 65% in size
Conditions: S16 Pmp22-F2sN Schwann cells (luciferase reporters placed in the Pmp22 gene) viability, CellTiter-Glo, 24 h; series mostly up to 57.5 µM; activity change, negative = cytotoxicity: at the top concentration
In short: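 Luminescence from CellTiter-Glo, read by CCD camera after a 15 min room-temperature incubation, served as the viability signal. Reporter Schwann cells (S16 Pmp22-F2sN) had been treated with pin-transferred compounds for 24 h at 37C.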
% is scaled to controls: 0 for no effect and ±100 for the full control effect.

Row | SMILES | activity change, negative = cytotoxicity
1 | CCOc1ccccc1NC(=O)c1nc2nc(C)cc(C(F)F)n2n1 | inactive: 17.6%
2 | O=C(NC1CC(=O)N(c2ccc(Cl)cc2)C1)c1ccc2c(c1)OCO2 (configuration not stated) | inactive: 0.971%
3 | COc1cccc(N2CCN(C(=O)C3CCN(S(=O)(=O)c4c(C)noc4C)CC3)CC2)c1 | inactive: 2.64%
4 | Cc1cccc(NC(=O)Cn2nnc(C(=O)Nc3ccccc3Br)c2N)c1C | inactive: 7.03%
5 | Cn1cc(C(=O)NCc2ccccc2)c(=O)c2cc(S(=O)(=O)N3CCOCC3)ccc21 | inactive: 2.89%
6 | Cc1ccc(F)c(NC(=O)Nc2ccc3snnc3c2)c1 | inactive: -0.325%
7 | COc1ccc(OC)c(NS(=O)(=O)c2ccc3[nH]c4c(c3c2)CCCCC4)c1 | inactive: -0.788%
8 | O=C(NCCN1CCN(c2cccc(Cl)c2)CC1)C1COc2ccccc2C1 (configuration not stated) | inactive: -0.686%
9 | Cc1cccc(CNC(=O)Cn2ccc3cc(S(=O)(=O)N4CCCC4)ccc32)c1 | inactive: -4.38%
10 | CCOc1ccc(CCNC(=O)c2cn(CC)c3ccc(S(=O)(=O)N4CCCCCC4)cc3c2=O)cc1OCC | inactive: -19.6%
11 | CC(=O)N1CCCc2cc(S(=O)(=O)N(C)CC(=O)Nc3cccc(C)c3C)ccc21 | inactive: -13.8%
12 | O=C1c2[nH]nc(-c3ccccc3O)c2C(c2cccc(Cl)c2)N1Cc1cccnc1 (configuration not stated) | inactive: -0.379%
13 | Cc1cccc(NC(=O)Cn2c(=O)nc(-c3ccccc3)c3ccccc32)c1C | inactive: 26.3%
14 | O=C(c1ccc(CSc2nc3ccncc3n2Cc2cccc(F)c2)cc1)N1CCCCC1 | inactive: -14%
15 | CCOc1ccc(N(CC(=O)NCc2ccc(C)cc2)S(=O)(=O)c2c(C)noc2C)cc1 | inactive: 10%
16 | CCOC(=O)c1c(C)oc2ccc(N(C(=O)c3ccncc3)S(=O)(=O)c3ccc(Br)cc3)cc12 | inactive: -19%
17 | CC1=C(c2ccc(C(C)C)cc2)S(=O)(=O)NC1=NCc1ccccc1Br | inactive: -8.57%
18 | COc1ccc(C)cc1NC(=O)C1CCCN(S(=O)(=O)c2ccc3[nH]c(=O)ccc3c2)C1 (configuration not stated) | inactive: 7.31%
19 | COc1cc(NC(=O)CN2C(=O)CN(C)C(=O)c3ccccc32)cc(OC)c1OC | inactive: 1.9%
20 | CCOc1ccc(CCNC(=O)Cn2ncc3c(=O)oc4ccc(C)cc4c32)cc1 | inactive: 1.81%
21 | CCOC(=O)c1c(C)[nH]c(C)c1S(=O)(=O)N1CCC(C(=O)Nc2ccc(C)cn2)CC1 | inactive: 13.2%
22 | CCn1c2ccccc2c2cc(NC(=O)COc3cccc(C)c3)ccc21 | inactive: 4.28%
23 | CCOc1cc2[nH]c(=O)n(CCCC(=O)N3CCN(c4ccc(OC)cc4)CC3)c(=O)c2cc1OCC | inactive: 1.59%
24 | CNC(=O)C1CCC(Cn2c(=O)c3sccc3n(CC(=O)Nc3ccc(C)c(F)c3)c2=O)CC1 (configuration not stated) | inactive: -0.837%

Row | SMILES | activity change, negative = cytotoxicity
25 | Cc1ccc(NC(=O)CN2C(=O)CCn3nc(-c4cccn4C)cc32)cc1 | inactive: -3.86%
26 | COCCCNc1nc2c(S(=O)(=O)c3ccc(C)c(C)c3)nnn2c2ccc(Cl)cc12 | inactive: -19.1%
27 | CCOc1ccc(OCC)c(NC(=O)CCC(=O)N2CCOc3ccccc32)c1 | inactive: -6.72%
28 | CSc1ncc(C(=O)Nc2ccc(F)cc2F)c(-c2ccccc2)n1 | inactive: 15.3%
29 | Cc1ccc2oc(-c3cc(NC(=O)c4ccco4)ccc3Cl)nc2c1 | inactive: 21.8%
30 | O=C(CSCc1nc2cccnc2n1C1CCCCC1)NCc1cccc(Cl)c1 | inactive: -4.71%
31 | COc1ccc(-n2nc(C(=O)N3CCN(c4cccc(C)c4C)CC3)c3c4ccccc4n(C)c3c2=O)cc1 | inactive: 11.7%
32 | O=C(Nc1nc2nc(-c3ccccc3)cc(=O)n2[nH]1)c1ccc(Cl)cc1 | inactive: -1.46%
33 | CCC(C)OC(=O)/C(C#N)=C\c1ccc(-c2ccccc2Cl)o1 (configuration not stated) | inactive: -0.238%
34 | CCN(CC)CCNC(=O)c1nn(C)c2c1CS(=O)(=O)c1ccccc1-2 | inactive: 3.88%
35 | CCC(=O)N1c2ccccc2CC1C(=O)NCCc1ccc(C)cc1 (configuration not stated) | inactive: 10.1%
36 | Cc1ccc(CNC(=O)c2nn(C)c3c2CS(=O)(=O)c2ccccc2-3)cc1 | inactive: -5.26%
37 | Cc1cn(C)c(CC(=O)NCc2ccccc2Cl)c1C(=O)O | inactive: 1.96%
38 | O=C(Cn1c(=O)n(CC2CCCO2)c(=O)c2ccccc21)Nc1cccc(Cl)c1 (configuration not stated) | inactive: 2.73%
39 | COc1cc(OC)c(Nc2nc3ccccc3nc2-n2nc(C)cc2C)cc1Cl | inactive: 1.45%
40 | CCOC(=O)c1ccccc1NC(=O)N1CCC(N2CCN(Cc3ccccc3)C(=O)C2=O)CC1 | inactive: 16.1%
41 | CCS(=O)(=O)N1CCc2cc(C(=O)NCc3ccccc3)ccc21 | inactive: 6.35%
42 | Cc1ccc(-c2nc3nc(C)cc(Nc4ccccc4O)n3n2)cc1 | inactive: 6.11%
43 | O=C(NCCOCCn1c(=O)oc2ccccc21)Nc1ccc(Cl)cc1 | inactive: -26.2%
44 | CCOc1ccc(CNC(=O)c2ccc3c(c2)c(C)c(C)n3Cc2ccc(Cl)cc2)cc1 | inactive: -10.4%
45 | CN(C)S(=O)(=O)n1cc(/C=C(\NC(=O)c2ccccc2)C(=O)NCCCn2ccnc2)c2ccccc21 | inactive: 5.48%
46 | CCOC(=O)N1CCc2c(sc3c2c(=O)n(-c2ccc(CC)cc2)c(=O)n3CC(=O)Nc2ccc(C)cc2)C1 | inactive: 1.73%
47 | Cc1ccc2oc(=O)n(CCCOc3ccc(Cl)cc3)c2c1 | inactive: -3.36%
